Target: authentic E1A 243R protein, purified from bacteria (adenovirus)
Assay: pull-down

B1: GST-p21 Δ[…] (domain or fragment)
chain: not shown
binding result: binds

Reference: article PMC2175169 (The Journal of Cell Biology, 2000)
